Source: PMC12136788
This is one part of the list.

B1: chr1:220276048:220276049:+_ENSG00000067704_ENST00000302637|hu_hu|hu_hu_hu_mus_True|18_68 (ssRNA)
RNA: GGGAGUUCUACAGUCCGACGAUCGCAAAUUGCCUGGUUGGCGGGAAUUGUCCAAGGCUGGGUGGUCCAGACCAAAACGCUAACAGGGGAUGAGGCAUCUGUAAGAGACUCCAACUUUGGAGAAGGCCUCAGGAGGGGGAAUCUCAACAGAGGAUUGAGCAUCA
B2: chr7:135612270:135612271:-_ENSG00000105887_ENST00000393085|hu_mus|hu_hu_hu_mus_False|58_88 (ssRNA)
RNA: GGGAGUUCUACAGUCCGACGAUCGUUUUUUUCUGAGAUGUUAAAUAUUCAGUGGAGGGAAAACAAAACUUAACCUUUCGCUAAUGCGUGUUGUACCAAAAGCAGACAUUUUAGCUUCAUUUAUUCAAAAAUAUUAACAUUAAGCAACAGAGGAUUGAGCAUCA
B3: 90250392_90250512_7279_3pUTR_ENSMUSG00000012422_ENSMUST00000161568|mouse|control|control (ssRNA)
RNA: GGGAGUUCUACAGUCCGACGAUCGUUUUCUAUUUUUCUAUUACCUCAAUUUUUAAGGUAUCUUUUGGCUAUAUCAUUUCUUUGGUUACAAUCUUUAUCUGCAGGAGGUCUUAGCCUAUCCAUUAAAUUCUUCGACUAGACUUCCAACAGAGGAUUGAGCAUCA
B4: chr8:35894604:35894605:-_ENSMUSG00000031529_ENSMUST00000033929|mus_mus|FALSE|FALSE (ssRNA)
RNA: GGGAGUUCUACAGUCCGACGAUCUGUCACUCUAGCAAUGCUUUAUAAAAGACAGCUUAUUUCUUGGCUGUUGGGAUUUAGAGAAUAUUGAUUUUUUGUUGGAAGCAAUCCACUGUACUCCAGUUGCAGGUUUGAAUCACUCUGCAACAGAGGAUUGAGCAUCA
B5: chr5:138994509:138994510:+_ENSG00000131508_ENST00000398734|hu_hu|FALSE|FALSE (ssRNA)
RNA: GGGAGUUCUACAGUCCGACGAUCGAUGGACAAGAGUACUUUUGAAAUAGUUAGUGCUGGAGACCACUGUGAUCGUAGAAUAUCAAGACAAAUGCUGCCAUUACUGUUAAUAUUUGGAUGAUAAAUUCUUGUUGUAAAUGCAACCAACAGAGGAUUGAGCAUCA
B6: chr11:109522620:109522621:+_ENSMUSG00000020612_ENSMUST00000049527|mus_hu|FALSE|FALSE (ssRNA)
RNA: GGGAGUUCUACAGUCCGACGAUCAUCCCCUUCAUCACCUUGCUGAAUCACAGUCUCUCCUGCGAUAAAGGAGACCGAAAACAUGGCAUCAAAAAUAUCACUUCUCUCAUUAUCAUCAAGAUGUGAAAACAGCACAUUCUUUUCCAACAGAGGAUUGAGCAUCA
B7: chr9:110467127:110467128:+_ENSMUSG00000044791_ENSMUST00000153838|mus_mus|FALSE|FALSE (ssRNA)
RNA: GGGAGUUCUACAGUCCGACGAUCUUCUUUGCCAUAUCUUUGGAACUGGUAGUCAAAAGUUAAUUCUGAGCCUGAAGGAACUAGUUUGGUGGUAAAAAAUCCAACCCUCAGCUGUCCAUUCACAGUCCAUUUCUGGGUUUCACACAACAGAGGAUUGAGCAUCA
B8: chr1:39494564:39494565:+_ENSG00000168653_ENST00000372967|hu_hu|hu_hu_hu_mus_True|8_38 (ssRNA)
RNA: GGGAGUUCUACAGUCCGACGAUCAUGCAUUCGCCUCAUCGUUUUGUACCGAAGCAAGCACUCUUCGAAGUCAUCGAACUCUAUCUUGCACUCCUUUUCUGCCCGAGUCCCACCGAUCCCGUGUGCACAUUCUAUCCACUCUUUCAACAGAGGAUUGAGCAUCA
B9: chr9:50470998:50470999:-_ENSMUSG00000032064_ENSMUST00000117646|mus_mus|motif|central (ssRNA)
RNA: GGGAGUUCUACAGUCCGACGAUCUAGGCAGUUAAAACAGGUUAUUACAUUGAUCAUCGGAAACUUCUGGCAUAACAGUCGGUGAAAACAUUGUAAAACAGAAUACAUGGUAAGAAUCUCUGAAAGCAGUGGUCACAAACACCCCAACAGAGGAUUGAGCAUCA
B10: chr2:198351390:198351391:-_ENSG00000144381_ENST00000345042|hu_hu|hu_hu_hu_mus_False|48_108 (ssRNA)
RNA: GGGAGUUCUACAGUCCGACGAUCUCAUUCUCACUCUCCACAGAAAGGCUGCUUCUGAACUCUCAUGUGGUGACACAGCGCUACAGUCCUGAUUUUAACAGAACAGUAGAGAUGCCUCAGUGAUUUAAGUUGAAAGCAGGACACCAACAGAGGAUUGAGCAUCA
B11: 56517131_56518048_387_CDS_ENSMUSG00000022223_ENSMUST00000111325|mouse|control|control (ssRNA)
RNA: GGGAGUUCUACAGUCCGACGAUCUUCCCAUUUGGUUACCAGGUUGGAGAAAAAGUCAAAAUUCCCUCCUGGGCUGUCUUCAUCAUACUCCUUAGUCAGGCUUGGCUGGUAGUAAGCUACACCUGUGACUAGAAUCCAAGCCUGCAACAGAGGAUUGAGCAUCA
B12: 93596713_93600395_1924_CDS_ENSG00000107854_ENST00000371627|human|control|control (ssRNA)
RNA: GGGAGUUCUACAGUCCGACGAUCCCCAGCUGCAAAAUGAAGUGGUGUAGACUGACGCCCUUCAAUGUCUCUGCAGUUGACACUCUGAACAGUACACAGUUUUUUUACAGUUUCGACAUCUCCAGCCUUUGCAGCUUCCAGCAACAACAGAGGAUUGAGCAUCA
B13: 25284677_25285055_493_3pUTR_ENSMUSG00000054793_ENSMUST00000068023|mouse|control|control (ssRNA)
RNA: GGGAGUUCUACAGUCCGACGAUCAUACCAGCGCAGGACCGCUGCGGGGCGCGACCGCGGAACCAGGCAGCUGAGUUCCACCUCGCCGCCCUCCACUGCUUGCUCUCGGACCUCCACCACAGGAUUCUCCGGAGCCACUAAGACCAACAGAGGAUUGAGCAUCA
B14: chr1:172123744:172123745:-_ENSMUSG00000026667_ENSMUST00000150821|mus_mus|FALSE|FALSE (ssRNA)
RNA: GGGAGUUCUACAGUCCGACGAUCCAGCUCGCUGAAACACAGUGCUCACACUUUAUAGGGAGGUGGAAAUAAAGUCCUCUGCUAUUCAGCAAGAAAAUAGACAUCUGAAAGACUGAUAAUGAAAAAAGAACAUCUUGGUACUAACAACAGAGGAUUGAGCAUCA
B15: chr20:44444512:44444513:+_ENSG00000175063_ENST00000356455|hu_mus|FALSE|FALSE (ssRNA)
RNA: GGGAGUUCUACAGUCCGACGAUCCAGGUAUUUCUUAAAUGCUGUGGGGUUUUUCCAGAGUUCCGCAGCGUGUGUGUUCAAAGGGCUAUCGAUGUUGGGUUCUCCUAGCAGGCUCUGGAUAGAGAGCAAGAUAGUCCUGACAUCCAACAGAGGAUUGAGCAUCA
B16: chr7:65705475:65705476:+_ENSG00000169902_ENST00000304842|hu_hu|hu_hu_hu_mus_True|18_98 (ssRNA)
RNA: GGGAGUUCUACAGUCCGACGAUCUCUAUUCGGUGAUGGCAUUCCAUGGCAUGCUGGCCCAGGUAAAACACGGUCACAGAACUAAUCACCAGACACGCCAAGAGUAAGUUCUGCUUCAGCUUUCCAACCAUCUUGAUGUGGUUACAACAGAGGAUUGAGCAUCA
B17: chr2:130369808:130369809:+_ENSMUSG00000027303_ENSMUST00000028769|mus_mus|FALSE|FALSE (ssRNA)
RNA: GGGAGUUCUACAGUCCGACGAUCGUUGGCUGGAAGGUUUCCCGUGCGCAUCUUGUCAUUCUGGAUUUUGAUUGAAGUUAAUUUCUUAAACUCCUCCUCUAACCCGUUGUUGCUCGUCCCUGGGAUCUUGUUAUAAAUUUUUUGCAACAGAGGAUUGAGCAUCA
B18: chr4:123032474:123032475:-_ENSMUSG00000028649_ENSMUST00000154824|mus_mus|motif|central (ssRNA)
RNA: GGGAGUUCUACAGUCCGACGAUCUGACCGGAAUGGAGUCAUCCCCUGAGAUGCCCCUUCUGGCAGGAUGAAUUUCUCUCGGAGUUCGGUGUUAGUUCUGCCUCGUGCUCGGCAGGGGUCAUUUUUCACUAGAAACUCGUCCAGCAACAGAGGAUUGAGCAUCA
B19: chr10:34018390:34018391:+_ENSMUSG00000039485_ENSMUST00000047935|mus_mus|motif|central (ssRNA)
RNA: GGGAGUUCUACAGUCCGACGAUCGCCCAUCAGAUAGUAUUGUAGGGGAUUGGACCACAGCUCCCCUUUGAUAAUUUCAGCGGUUCUGUCGAAUUCUAGGAGGCUGUGGUCUGAGAACCAGUUGAAGAAACUGGGAAUCGUGUUCAACAGAGGAUUGAGCAUCA
B20: chr17:16285243:16285244:+_ENSG00000170315_ENST00000535788|hu_mus|FALSE|FALSE (ssRNA)
RNA: GGGAGUUCUACAGUCCGACGAUCUCACGUUCUCGAUGGUGUCACUGGGCUCCACCUCUAGGGUGAUGGUCUUGCCGGUCAGGGUCUUCACGAAGAUCUGCAUUUUGACCUGUUAACAAAUGUGAUGAAAGCACAAACCGCCCACAACAGAGGAUUGAGCAUCA
B21: 97313816_97328786_801_CDS_ENSG00000139350_ENST00000266742|human|control|control (ssRNA)
RNA: GGGAGUUCUACAGUCCGACGAUCCUUAAACAAGGAGUACUUCAAGUGCCGAACAGACUGGUUACUACCAUGGCCAAAAGGAGUACUAGAUAAAUUAGUGGUUACACUGUGUAAAAUAAUUUCACCACUAAGAGAUCCAGAAGCCAACAGAGGAUUGAGCAUCA
B22: chr17:49118984:49118985:-_ENSG00000008294_ENST00000510283|hu_hu|FALSE|FALSE (ssRNA)
RNA: GGGAGUUCUACAGUCCGACGAUCUCCUUUCUGAGCAUCAGGUGUAAGCAAUCCAUCUCCAGCAGGUAAUGGGAAAAUUCCUAAUGAUAUAGGGCGUUCUUUUCUGAGUAUCCUUGGUAGGUUCUGCGUCAGAGCUGGCACACCCAACAGAGGAUUGAGCAUCA

biological target: T1, UNK ZnF1-3 (human, UniProt Q9C0B0 31-174); assay: nsRBNS (natural sequence RNA bind-n-seq); RBNS binding buffer (assumed for nsRBNS): 25 mM Tris pH 7.5, 150 mM KCl, 3 mM MgCl2, 0.01% Triton X-100, 500 ug/ml BSA, 20 U/ml SUPERase-In, 4 C; UNK is unkempt and MSI1 is Musashi-1; names of the RNAs are library labels; protein concentration not given here; high values mean tight binding
T1 sequence: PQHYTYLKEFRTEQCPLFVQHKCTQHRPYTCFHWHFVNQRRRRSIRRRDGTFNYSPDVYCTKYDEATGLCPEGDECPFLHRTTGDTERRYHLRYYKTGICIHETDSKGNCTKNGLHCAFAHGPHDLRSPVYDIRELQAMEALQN

Binder	binding signal [enrichment R]
B1	2.2
B2	2.04
B3	0.54
B4	0.83
B5	0.946
B6	0.666
B7	0.918
B8	0.607
B9	1.3
B10	1.05
B11	0.754
B12	0.635
B13	1.14
B14	1.5
B15	0.494
B16	0.511
B17	0.354
B18	0.673
B19	0.819
B20	0.835
B21	1.43
B22	1.42
